# Measured values taken from the supplement of paper PMC11417369.
# The list shows a part of the results.
# System: PfHDP1 homeodomain (GST-tagged)
# Assay: gcPBM binding intensity (ln(normalized median fluorescence intensity)); higher = stronger DNA binding
# How it was run: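 For binding intensity, the highest Masliner-normalised natural-log median intensity across replicate spots of either probe orientation was taken. Protein bound to the array was stained with Alexa488 anti-GST antibody and scanned at 488 nm. The protein, GST-tagged P. falciparum DNA-binding domains from E. coli at about 25 μg on average, had been applied for 1 h to an Agilent 4 × 180k array of primer-extended double-stranded 36-bp intergenic genomic probes and negative controls.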
row,Sequence,gcPBM binding intensity (ln)
1,TTTTTTTTGTTATGAACATGCAAATTAAAATATAAT [TGCATGCA_site954],6.42
2,TAAATACATAAAAATTGTACACATTGTTTTCTCTTT [XGTACX_site6435],6.49
3,TACTTTTCTTAAAGATGTACGTTTTAAAAATAAAAT [XGTACX_site14],6.08
4,CAACAATTTCGTCATACACACATTCAGAATATATAT [CACACA_site2370],6.74
5,TCCTTATTTTGCAGGAGTACCATTTTTTAAAAATAC [XGTACX_site5968],6.67
6,ACAATTACTTATTTTAATTTTTTTAATCTATTGATT [CACACA_negctrl_site967],6.1
7,AATAACAATTATAAAAGTACAGATTTTTATTTCTAA [XGTACX_site5746],6
8,ATTTATAATTTTTGAGCACACACAAGCATATATATA [CACACA_site8531],7.09
9,ACAATGATAGTGTAAAGTACATATATATAAAAAAAT [XGTACX_site5928],7.13
10,TGAACTCATAGGAAAACACACATATGTGCAATATAT [CACACA_site6231],11.3
11,TGTTATTATTAAGACACACACACAAAAAAAAAAAAA [CACACA_site1481],6.51
12,TTTATAATATGTTATACATGCAGGTACCTTTTTGTA [TGCATGCA_site746],6.63
13,AAGATTAAACATTGCACACAGAAATATATTTTCTAT [CACACA_site2374],9.55
14,TTGTTCATCTTTTTTTTTTTTTTTTTTTTTTAAATC [CACACA_negctrl_site191],5.69
15,TTTCAATGTGACACGTGTCCGTAAAATTACATAATT [XGTACX_site7073],6.61
16,ATTAATAAAAGATAAAGTACAAATCGGAAAATGAAT [XGTACX_site7846],6.99
17,ATCTATATTATTTCTACACACATATCTATAATATGT [CACACA_site7561],7
18,TTCTTTTTTTTTTTTTTTTTTTTATAGTACAAAAAA [TGCATGCA_negctrl_site450],5.88
19,ATATCAAATAGACAAACACACAAAGGAAGAGTGAAA [CACACA_site3921],6.76
20,TTTTTTTTTTTGTGTGCATGTGCTAGGAAAGGTAGG [TGCATGCA_site330],7.93
21,TTTTAATGAAATATCAAAAAAATTTATGATTTCAAA [GTGCAC_negctrl_site662],5.52
22,AATAATATATAAGAAAGTACAAAAAAATAAAATAAA [XGTACX_site3302],6.8

row,Sequence,gcPBM binding intensity (ln)
1,AAAAAGAAAAAACTTACACACATATATACACCCATG [CACACA_site8079],6.98
2,GAGAAATTTATACATACACACATATAAATATTATAG [CACACA_site7819],6.45
3,CTTTGCATTACGAACATACACACAGAATAACTGAAA [CACACA_site3024],6.95
4,TAGAAAAAAATAGATGCATGCAATGAATGAATAATA [TGCATGCA_site14],7.03
5,TTTCTATTACGAACGTGTACATACATTATTCTTAAA [XGTACX_site5816],6.83
6,ATATATTTTGGGGACTTTTTAAAAAAGAAGTATTAA [TGCATGCA_negctrl_site337],6.79
7,TTTTTGTTAATAAGTATGCACTATCTCATTTTTGTA,8.3
8,TAGTAGTATTCATCCAGTACATATAAATGTATAATA [XGTACX_site7552],6.23
9,CTATACTATGAAAAGTGTACGAATAGCTAGCTATTT [XGTACX_site5927],6.39
10,GAGCATTACACATATACACACATATAAATAAACATA [CACACA_site7315],7.32
11,CAAGAATTAAAATAAAGTACAAAAGTAACAACTTTT [XGTACX_site1474],5.84
12,AAAAAAAAGGAAAAGGGTACAAAACCATACTTACAT [XGTACX_site4783],6.24
13,ATTAGTGACATTATTACACACAAAAGAAAACAGAAA [CACACA_site3984],7.06
14,TGAATCTATATACAGGTGCGTAAAAAATAACTTATA,7.02
15,ATGATAGTAATTAATAGTACTTTTTTTGATACAAAA [XGTACX_site4288],6.01
16,TCGTGTTTTAAAAAAATGAAGAAAAGTAAAAAAAAA [XGTACX_negctrl_site23],6.47
17,ATTAAATGTATGACTTGTACATAAAATAAAAAAAAA [XGTACX_site6555],6.56
18,TAATATGAATATATATGTACATACAATTTGTTATAT [XGTACX_site5815],6.55
19,TTATCATTACATGAGTGTACATTATTATATTTTTTT [XGTACX_site7845],6.65
20,TAAAGATATAAATGCACACGTATTAAAAAAAAAATA [CACACA_site952],9.54
21,GAAAGAAAGAAAGAAAGTACATATAAAAATATACAT [XGTACX_site7299],6.03
22,ATATATTTTTTTTTTTGTACGTATATTTATATAATT [XGTACX_site8719],6.76

row,Sequence,gcPBM binding intensity (ln)
1,TTTTAATGTATATTTTGTACGTATTATTAATATTCG [XGTACX_site8453],6.3
2,TATCCTAATGCTACCACACACACAAAAACAAATAAT [CACACA_site2609],7.2
3,ATGTTGAAAGGAAAAAATAATAAAATCGATATATTA [CACACA_negctrl_site549],6.33
4,AAAAAAAAGAATAGAGCATGCAAAATATATGAAATA [TGCATGCA_site933],7.34
5,CCTTACTTCTTATAAAGTACCCAATGATATACATTA [XGTACX_site1554],6.38
6,AATATTTATGGGTGCACACAAACATACATATATATA [CACACA_site3395],10
7,TGTATGATTATGTTGTGTACGTAAAATATGAAAAAT [XGTACX_site1720],7.39
8,GTATCATAAAAGTATACACACATACATACATATGTA [CACACA_site5456],6.81
9,GCACACATATAATTAAACATATATTTGTATTATTTT [GTGCAC_negctrl_site327],6.5
10,ATTTTCCTTTAATTATGTACTTATGTAATAATAATG [XGTACX_site2612],6.96
11,ATCTCTACAAAGTGCACACACGTAAAAACATATATA [CACACA_site6046],9.38
12,ATATATTTATGTATCACACACAAAAAAAAAAAATAA [CACACA_site255],6.42
13,AATTTTTTTCTCCAAGTGCATTAGAACATTAACGTA [GTGCAC_site9413],8.91
14,ACAAATAAATAAAAAACACACACAAATAAATAAATA [CACACA_site8708],6.89
15,AGTATATAAAATACTGTATCGATGGGGGAGGGCGCA [CACACA_negctrl_site1612],7.38
16,AATATAATGCAATATACACACATATATTTCTCTTTT [CACACA_site7276],7.81
17,TAATAATAAAATATTTGTACATATAAAATATGGCTG [XGTACX_site7904],6.13
18,ATTATTATTTATATGATACACACGTACATATACGCA [CACACA_site3823],6.36
19,TATAAAAAATAATTATCATGAAATATATGATCATCA [TGCATGCA_negctrl_site137],6.48
20,TCAAAAATGAGTTACACACACACATATATATATATA [CACACA_site2229],9.36
21,ATATGAATAAATAAAAGTACATACATAATGTATTAT [XGTACX_site5969],6.37
22,TTAAAAAAAATATAATGTACTTGTAGAATTATATTT [XGTACX_site6220],5.76

row,Sequence,gcPBM binding intensity (ln)
1,TATATTTTTTATAAATGTACATGGATAGGCATAAAC [XGTACX_site8401],7.14
2,TATATATAATATATATGTACATAATATATTTTATAT [XGTACX_site2909],6.53
3,TAAAACACTCATGGCACACATAAAACATTTTTATGA [CACACA_site3574],6.51
4,AACAAATATATTAACACACAAACATATAAACCAATG [CACACA_site3970],6.89
5,AATTATTGTGAAGGGAAAACAAAAAAGTTTATAATT [CACACA_negctrl_site1337],6.51
6,AAGCGAATATATATCACACACAAAAAAATCAGACTA [CACACA_site2108],6.67
7,AACTAATAAAAAAAAAGTACACAATATGTAAATAAC [XGTACX_site5263],6.89
8,AAATTAATTAAATATACACACATATATAGATATATA [CACACA_site6321],6.46
9,ACCACATTTTTTTTTGCATGTTGTTTAAAAAAAGGC [TGCATGCA_site137],6.74
10,TATATATTATATATATGTACATACTTTTTACGTTCA [XGTACX_site2493],6.75
11,AGTTTAAATTAAATTACACACTACGAATAATATATT [CACACA_site7811],6.46
12,AGTATAAGCATTATTGTGCACATAATTATAATTTTT,11
13,TATTAATCTTTTTTTAAACAAAAAATTAAGCAAATT [CACACA_negctrl_site884],6.2
14,TATATATTAATAAATAGTACCCGTGGAATTTATATT [XGTACX_site5855],6.32
15,ATTGTTCTCCAAAAGTGTACGTATTATTTTTCTGGA [XGTACX_site1404],6.56
16,GTTGCAATTAACACTAGTACATATAAGTAGTTTATT [XGTACX_site2063],6.61
17,AATAATGAAACAGGAAAAAAATATTGTTAAAATGTA [XGTACX_negctrl_site400],6.58
18,TCCTTACATTTTAAAACACACAAAAATTAATTGTTA [CACACA_site2313],6.56
19,TACTTTTATATGAATACACACAGGAATATAAATATG [CACACA_site7647],6.53
20,AAAAAATAGTGGTATGCATGTCCCTTGTATTTTCTT [TGCATGCA_site587],6.24
21,TGGATACACAAAAATTAAAAAAATAAACAAACAAAT [GTGCAC_negctrl_site105],6.97
22,AAAATACCCATTTTAGTACACACTTAAAAAATTATT [CACACA_site8966],6.28
